According to paper PMC4336329 (PLoS ONE, 2015):
Hit rate of the full screen: of about 310,000 compounds, about 14,000 (4.5%) showed an effect of 50% or more. Effects have a minus sign here. This is one part of the list.

molecular target: human ether-à-go-go-related gene (hERG) potassium channel (human, UniProt Q12809); assay: primary screen, population patch clamp on CHO cells stably expressing hERG
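Also: peak tail current of the secondary pulse compared with the same well before compound.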

Sequence of human ether-à-go-go-related gene (hERG) potassium channel (Q12809 whole entry, looked up): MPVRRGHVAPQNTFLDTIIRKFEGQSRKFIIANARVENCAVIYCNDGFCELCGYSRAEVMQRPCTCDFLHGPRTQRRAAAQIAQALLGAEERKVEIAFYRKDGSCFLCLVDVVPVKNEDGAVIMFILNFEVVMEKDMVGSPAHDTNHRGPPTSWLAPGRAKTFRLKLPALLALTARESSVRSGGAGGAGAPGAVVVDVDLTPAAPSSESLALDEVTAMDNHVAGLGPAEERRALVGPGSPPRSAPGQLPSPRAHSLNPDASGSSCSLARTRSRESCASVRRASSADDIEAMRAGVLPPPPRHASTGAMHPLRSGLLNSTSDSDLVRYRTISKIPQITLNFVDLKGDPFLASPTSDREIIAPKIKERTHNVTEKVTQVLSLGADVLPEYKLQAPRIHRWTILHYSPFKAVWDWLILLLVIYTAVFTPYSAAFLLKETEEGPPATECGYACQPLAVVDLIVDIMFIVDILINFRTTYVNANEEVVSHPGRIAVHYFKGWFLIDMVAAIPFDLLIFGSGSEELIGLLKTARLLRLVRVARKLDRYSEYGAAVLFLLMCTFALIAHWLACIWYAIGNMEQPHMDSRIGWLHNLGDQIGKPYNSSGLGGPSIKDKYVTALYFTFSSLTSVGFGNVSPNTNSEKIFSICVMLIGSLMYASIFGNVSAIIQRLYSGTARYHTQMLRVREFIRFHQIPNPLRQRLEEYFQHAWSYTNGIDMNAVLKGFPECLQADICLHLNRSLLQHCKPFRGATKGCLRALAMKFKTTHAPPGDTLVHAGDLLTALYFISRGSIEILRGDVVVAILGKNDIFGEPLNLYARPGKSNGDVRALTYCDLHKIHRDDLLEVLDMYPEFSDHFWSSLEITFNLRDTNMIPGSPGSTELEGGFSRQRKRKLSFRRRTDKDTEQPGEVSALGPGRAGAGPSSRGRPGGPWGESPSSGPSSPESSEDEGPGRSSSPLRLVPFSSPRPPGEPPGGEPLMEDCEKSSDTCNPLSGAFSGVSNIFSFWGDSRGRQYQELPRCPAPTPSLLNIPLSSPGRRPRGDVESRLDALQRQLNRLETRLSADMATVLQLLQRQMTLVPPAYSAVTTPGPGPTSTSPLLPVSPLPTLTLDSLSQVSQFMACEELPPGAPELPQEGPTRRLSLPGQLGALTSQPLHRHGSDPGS

| SMILES | hERG current change (%, negative = inhibition) at 10uM [%] |
| --- | --- |
| COCCCNC(=O)c1ccccc1N(Cc1ccccc1)S(=O)(=O)c1ccccc1 | 16.3 |
| CC(C)C(=O)Nc1ccc(C(=O)NNC(=S)NC(=O)c2ccccc2[N+](=O)[O-])cc1 | 11.5 |
| CN(Cc1ccccc1)C(=O)c1nc[nH]c1C(=O)N1CCN(C(=O)OC(C)(C)C)CC1 | 11.2 |
| CC(C)(C)c1ccc(N2C(=O)CSC2c2cccnc2)cc1 (centres unmarked) | 4.38 |
| CCCNC(=O)C(Cc1ccccc1)NC(=O)c1ccccc1 (centres unmarked) | 7.51 |
| CCOC(=O)c1sc2nc(C)nc(SCC(=O)N(CC)C3CCS(=O)(=O)C3)c2c1C (centres unmarked) | 4.76 |
| Cc1ccn2c(C(=O)CSc3ccccc3)c(C)nc2c1 | 5.58 |
| Cn1cc(CNCc2cn(C)nc2-c2ccc(C3CCCCC3)cc2)cn1 | -39.8 |
| Cc1ccc(NC(=O)c2ccc(C)cc2)cc1 | -5.64 |
| COc1ccc(C)cc1S(=O)(=O)NCC(c1ccco1)N1CCc2ccccc2C1 (centres unmarked) | -62.8 |
| CCOC(=O)N1CCC(NC(=O)CN2C(=O)C(CC)Oc3ccc(C)cc32)CC1 (centres unmarked) | 0.991 |
| C[C@H]1CCC/C=C/[C@@H]2C[C@H](O)C[C@H]2[C@H](O)/C=C/C(=O)O1 [56422115] | 14 |
| CC(=O)Nc1c(C)ccc(CNC(=O)COc2ccc(F)cc2)c1C | 10.6 |
| COC(=O)c1ccc(N=NN2CCOCC2)cc1 | 0.0119 |
| CCOC(=O)CNS(=O)(=O)c1cc(-c2nnc(Nc3ccc4c(c3)OCO4)c3ccccc23)ccc1C | -15.9 |
| COC(=O)c1sccc1S(=O)(=O)N1CCCC(N(C)CCc2ccccn2)C1 (centres unmarked) | -22.7 |
| CCn1c(SCc2nc3ccccc3c(=O)[nH]2)nnc1C(C)NC(=O)c1ccccc1 (centres unmarked) | 26.4 |
| CN(C)c1ccc(NC(=O)CSc2nc3ccccc3c(=O)n2CC2CCCO2)cc1 (centres unmarked) | 2.31 |
| CCCC1COC(Cn2cncn2)(c2ccc(Cl)cc2Cl)O1 (centres unmarked) | -6.16 |
| Cc1c(NC(=O)Nc2cc(Cl)ccc2Cl)c(=O)n(-c2ccccc2)n1C | 5.72 |
| O=C(NCCN1CCCCCC1)C1CCN(S(=O)(=O)N2CCOCC2)CC1 | 5.97 |
| Cc1ccc(S(=O)(=O)Nc2cccnc2Oc2ccc(Cl)cc2)cc1 | -20.9 |

| SMILES | hERG current change (%, negative = inhibition) at 10uM [%] |
| --- | --- |
| CC(C)(C)[C@H]1C=C(C(=O)NC2CC2)O[C@@H](OCc2ccc(CO)cc2)C1 | 9.35 |
| Cc1nn(-c2ccccc2)c(C)c1N | 48.3 |
| O=C(Nc1ccccc1)Nc1ccc2ccccc2c1 | 12.2 |
| Cc1cc(NC(=O)COC(=O)CSCc2ccc(Cl)c(Cl)c2)no1 | 5.96 |
| COc1cc(C(c2c(C)[nH]n(-c3ccccc3)c2=O)c2c(C)[nH]n(-c3ccccc3)c2=O)cc(OC)c1OC | 17.6 |
| Cc1ccc(C(C)C)c(OCc2nnc(SCC(=O)Nc3ncc(C)s3)n2C)c1 | -4.11 |
| CCCS(=O)(=O)N1CCCC(C(=O)NCc2ccc(C)cc2)C1 (centres unmarked) | 4.91 |
| O=C(CN1C(=O)C2CCCN2C(=O)c2ccccc21)Nc1ccccc1-n1cccc1 (centres unmarked) | -21.6 |
| CC(C)CCNc1c(-c2cccs2)nc2ccccn12 | -23.2 |
| Cn1c(O)c(N=Nc2ccc(F)cc2)c2ccccc21 | 18.1 |
| CS(=O)(=O)Nc1ccc([N+](=O)[O-])cc1Oc1ccccc1 | -5 |
| O=C(Cc1ccc(F)cc1)NCCS(=O)(=O)N1CCN(c2cccc(Cl)c2)CC1 | -16.2 |
| O=C(Nc1cc(C(F)(F)F)ccc1N1CCCCC1)c1cccc([N+](=O)[O-])c1 | 4.66 |
| CC(C)(C)NC(=O)NC(=O)CN1CCN(Cc2ccccc2)CC1 | -1.77 |
| Cc1c(C(=O)Nc2ccc(F)cc2)c2ccccn2c1CCc1ccncc1 | -42.8 |
| COCCCN1C(=O)c2ccc(C(=O)N3CCN(c4ccccc4OC)CC3)cc2C1=O | -7.05 |
| Cc1c(Cl)c([N+](=O)[O-])nn1CC(=O)NCc1ccc(Cl)cc1 | -16.6 |
| CC(C)c1nc(N2CCCC2)c(C#N)c2c1CCCC2 | -2.2 |
| Cn1c(N2CCOCC2)nc2c1c(=O)n(Cc1ccc(Cl)c(Cl)c1)c(=O)n2C | -50.5 |
| Cc1cc2nc3n(c2cc1C)CC1CC(C(=O)NCCC(C)C)N(C)C31 (centres unmarked) | 1.81 |
| Oc1ccc(Br)cc1C=Nc1ccc2[nH]ncc2c1 | -11.8 |
| O=C(CCCn1c(=O)[nH]c2cc(Cl)ccc2c1=O)NCCN1CCN(c2ccccc2)CC1 | -48.4 |

| SMILES | hERG current change (%, negative = inhibition) at 10uM [%] |
| --- | --- |
| O=C(CN1C(=O)NC2(CCCCC2)C1=O)Nc1ccc2c(c1)CCC2 | 30.6 |
| COc1cccc(-c2nc3n(n2)C(c2cccs2)C(C(=O)Nc2cccnc2)=C(C)N3)c1 (centres unmarked) | -72.3 |
| CCOc1ccc(NC(=O)C2C(C(=O)O)C3(Cl)C(Cl)=C(Cl)C2(Cl)C3(Cl)Cl)cc1 (centres unmarked) | 2.09 |
| COc1ccc(/C(N)=N/OC(=O)C2CCC(=O)N2S(=O)(=O)c2ccc(C)cc2)cc1 (centres unmarked) | 6.53 |
| N#CC1=C(N)SC(N)=C(C#N)C1c1ccnc2ccccc12 | 20.4 |
| COc1cc(/C=C(/C#N)C(=O)Nc2ccc(C)cc2)ccc1Oc1nc(Cl)ncc1F | -1.55 |
| CCN(C(=O)CSc1nc2ccccc2c(=O)n1Cc1ccc(C)cc1)C1CCS(=O)(=O)C1 (centres unmarked) | -71 |
| CSc1nc2sc3c(c2c2nncn12)CCC3 | -25.2 |
| COc1cc(C=O)ccc1OC(=O)c1ccc(C(C)C)cc1 | 4.05 |
| O=C(O)COc1ccccc1/C=N/NC(=O)Cc1ccccc1 | 20.7 |
| Nc1nnc(CC(=O)N/N=C/c2ccc(-c3ccc(Cl)cc3Cl)o2)s1 | 17.2 |
| CCOC(=O)c1ccc(NC2=CC(=O)CC(c3ccco3)C2)cc1 (centres unmarked) | -16.8 |
| C/C(=N\NC(=O)CCc1ccc(S(=O)(=O)N2CCOCC2)cc1)c1ccc(Br)cc1 | 6.98 |
| Cc1cccc(Nc2nnc(SCC(=O)NC3CCCc4ccccc43)s2)c1C (centres unmarked) | -13.1 |
| C=CCSc1nc2ccccc2c(=O)[nH]1 | -0.587 |
| CNC(=O)c1c(NC(=O)CS(=O)(=O)c2ccccc2)sc(C)c1C | -9.71 |
| COc1ccc2c(CN3CCN(S(=O)(=O)c4cccs4)CC3)cc(=O)oc2c1 | -45.6 |
| Nc1c(C(=O)OCC2CCCO2)c2nc3ccccc3nc2n1C1CCCCC1 (centres unmarked) | 19.7 |
| COc1ccccc1CN(C)C(=O)c1cc2ccccc2o1 | 5.61 |
| COc1ccccc1NC(=O)CSc1nnc(CNC(=O)COc2ccc(Cl)cc2)o1 | -43.7 |
| CC(C)[C@@H](C(=O)O)N(Cc1cccc(CN([C@H](C(=O)O)C(C)C)S(C)(=O)=O)c1)S(C)(=O)=O | 9.08 |
| CCOc1ccccc1NC(=O)c1cccc(NC(=O)C(C)C)c1 | -2.12 |

| SMILES | hERG current change (%, negative = inhibition) at 10uM [%] |
| --- | --- |
| CC(Sc1ccc2c(c1)OCCO2)C(=O)Nc1ccc2c(c1)OCO2 (centres unmarked) | 4.25 |
| CC(C)(C)NC(=O)Cn1c(SCC(=O)NC2CCCCC2)nc2ccccc21 | 3.96 |
| Cc1cccc(C)c1NC(=O)Cn1nnc(-c2ccc(CN3CCC(C)CC3)cc2)n1 | 9.65 |
| Cc1ccsc1/C=N/NC(=O)CNC(=O)c1ccc(S(=O)(=O)N(C)C)cc1 | -23.9 |
| Cc1cc(NCc2ccccc2)nc2ccccc12 | -50.9 |
| COc1nc(-c2cnccn2)sc1C | 12.6 |
| S=c1[nH]nc(C2CCCCC2)n1/N=C/c1c(Cl)cccc1Cl | 12.5 |
| COC(=O)c1cc(NC(=O)CN(c2ccccc2OC)S(=O)(=O)c2ccccc2)ccc1Cl | 1.44 |
| Cc1ccc(S(=O)(=O)NCc2ccc(C(=O)N3CCc4ccccc4C3)cc2)cc1 | -6.9 |
| CCN(CC)C(=O)C1c2ccccc2Oc2ccccc21 | 13.1 |
| NS(=O)(=O)c1ccc(NC(=O)COC(=O)c2cnc(Cl)c(Cl)c2)cc1 | 15.2 |
| CCOc1ccc(N2C(=O)C3C4C=CC(CC4)C3C2=O)c([N+](=O)[O-])c1 (centres unmarked) | -30.8 |
| Cc1ccc(NC(=O)CCC(=O)OCC(=O)c2ccc(Oc3ccc([N+](=O)[O-])cc3)cc2)c(C)c1 | 5.55 |
| COc1ccc(CN2CCN(Cc3ccc(Br)cc3)CC2)c(OC)c1OC.O=C(O)C(=O)O | -69.7 |
| COc1ccc(-c2csc(NC(=O)Cc3ccccc3)n2)cc1OC | 14.4 |
| O=C(NCc1ccccc1Cl)C1CCN(C(=O)c2ccco2)CC1 | 1.42 |
| c1ccc2c(c1)[nH]c1c(N3CCOCC3)ncnc12 | 1.81 |
| CCNCC(=O)Nc1c(C)cccc1C | 17.1 |
| CCCCNC(=O)CCC(=O)Nc1ncc(-c2ccc(C)cc2)n1C | -2.96 |
| O=C(CN(Cc1ccco1)C(=O)Cn1nnc(-c2cccs2)n1)NCc1ccccc1 | -51.7 |
